According to ChEMBL document CHEMBL4888484, “Replenishing the malaria drug discovery pipeline: Screening and hit evaluation of the MMV Hit Generation Library 1 (HGL1) against asexual blood stage Plasmodium falciparum ,using a nano luciferase reporter read-out” (2022):
Out of some 150,000 compounds screened, about 540 (0.36%) showed an effect of 50% or more. This is one part of the list.

The compounds below were run on Plasmodium falciparum (assay: Primary screen in NF54 nanoGlo assay, in single point, at 2uM, 72h; a lower Z score goes with more inhibition). Conditions: timepoint 72 hour.
Type: functional, Erythrocyte
For O=C(Cc1ccc(F)cc1Cl)NC1(C(=O)O)CCC1, the “% Inhibition” value was -7% and the Z score was 0.96.
In the case of CC(C)N1CCN(C(=O)CN2C(=O)[C@@H]3CCCN3C(=O)c3cc(F)ccc32)CC1, the “% Inhibition” value is reported as -2% and the Z score is reported as 0.27.
In the case of CNC(=O)[C@H]1CC[C@H](CNc2nc(C)cnc2C)CC1, the “% Inhibition” value is reported as 0% and the Z score is reported as 0.01.
For CCOC(=O)c1cnc(NS(=O)(=O)c2ccc(F)c(Cl)c2)n1C, the “% Inhibition” value was -3% and the Z score was 0.45.
With NC[C@H]1CN(S(=O)(=O)c2ccc3c(c2)CCC3)CCO1 the “% Inhibition” value was -12% and the Z score was 1.65.
For Cn1cc(CN2CCC[C@@H](NC(=O)OC(C)(C)C)C2)cn1, the “% Inhibition” value was -1% and the Z score was 0.1.
With COCCOc1cc(C(=O)NCc2nc(C)no2)ccn1 the “% Inhibition” value was -11% and the Z score was 1.99.
CCN(CC)CCNC(=O)C1CCN(c2c(NC(C)=O)c(C)nn2-c2ccccc2)CC1 was tested, and the “% Inhibition” value was -13% and the Z score was 2.33.
In the case of Cc1nc(C)c(C(=O)N(C)Cc2nc3ccccc3c(=O)[nH]2)s1, the “% Inhibition” value is reported as -16% and the Z score is reported as 2.1.
For O=C(c1cncc(F)c1)N1C2CCC1CC(Oc1cccnc1)C2 (centres undefined), the “% Inhibition” value was -7% and the Z score was 1.48.
In the case of Cc1cc(C(C)(O)CNC(=O)NC(c2ccccn2)C(C)C)c(C)o1 (centres undefined), the “% Inhibition” value is reported as 0% and the Z score is reported as 0.04.
CCOCCC1(CN[C@@H](C)CCOC)CCCC1 was tested, and the “% Inhibition” value was -11% and the Z score was 0.94.
With Cc1ccccc1C(C)(C)CNC(=O)NC[C@](C)(O)c1cnn(C)c1 the “% Inhibition” value was -1% and the Z score was 0.17.
In the case of Cc1c(CNC2CCCC2)c(C(=O)O)c(C)n1Cc1ccccc1Cl, the “% Inhibition” value is reported as -3% and the Z score is reported as 0.41.
With CN(CCC1CCOCC1)C(=O)c1ccc(O)c(Cl)c1 the “% Inhibition” value was -5% and the Z score was 0.88.
In the case of CC(C)C[C@H]1C[C@@H]1C(=O)Nc1nccnc1C1CC1, the “% Inhibition” value is reported as -1% and the Z score is reported as 0.15.
For O[C@@H]1CCCCC[C@H]1NCc1ccc2c(c1)OCCCCO2, the “% Inhibition” value was -12% and the Z score was 1.33.
In the case of CCC1CC(CC(=O)Nc2ccc3oc(C(N)=O)nc3c2)CCO1 (centres undefined), the “% Inhibition” value is reported as -16% and the Z score is reported as 2.03.
With O=C(NCc1ccccc1)N1CCOC[C@@H]1CC1CCOCC1 the “% Inhibition” value was 0% and the Z score was -0.02.
With C=CCOC[C@@H](O)CN(CCC(C)C)Cc1c(-c2ccccc2)noc1N(C)C(C)C the “% Inhibition” value was -3% and the Z score was 0.49.
CS(=O)(=O)C1CCCCC1NC1CCOc2ccc(F)cc21 (centres undefined) was tested, and the “% Inhibition” value was -11% and the Z score was 1.4.
CCOC(=O)COCCNC(=O)c1ccnc2[nH]cnc12 was tested, and the “% Inhibition” value was -10% and the Z score was 1.58.
In the case of CC(=Cc1cnc(C(C)(C)C)nc1)c1ncccn1, the “% Inhibition” value is reported as -1% and the Z score is reported as 0.11.
In the case of O=C(c1cc(-c2ccccc2Cl)nn1-c1ccc(Cl)c(Cl)c1)N1CCN(c2ccccc2Cl)CC1, the “% Inhibition” value is reported as -6% and the Z score is reported as 1.06.
O=C(COc1ccc(Cl)cc1Cl)Nc1nnc([C@@H]2CCCO2)o1 was tested, and the “% Inhibition” value was 4% and the Z score was -0.44.
CCCc1c(C(=O)N2CCN(c3nc4nccc(-c5ccc(C(C)(C)C)cc5)n4n3)CC2)cnn1-c1ccccc1 was tested, and the “% Inhibition” value was -5% and the Z score was 0.55.
For COCC(=O)N(C1CCOCC1)[C@H]1CCN(C(=O)Cc2ccccc2Cl)C1, the “% Inhibition” value was 28% and the Z score was -3.17.
With COCCC1CCCCN1C(=O)CC1(c2ccc(-c3ccccc3)cc2)CC(=O)N(C2CC2)C1=O (centres undefined) the “% Inhibition” value was 7% and the Z score was -0.94.
CN(CCCc1cnn(C)c1)c1nc(N)nc2ccc(C(=O)O)cc12 was tested, and the “% Inhibition” value was -11% and the Z score was 1.03.
COc1cc(C)c(S(=O)(=O)N(C2CC2)C2(C#N)CCC2)cc1C was tested, and the “% Inhibition” value was -5% and the Z score was 0.61.
With CCNC(=O)CCS(=O)(=O)Cc1cccc(OC)c1 the “% Inhibition” value was 6% and the Z score was -1.09.
With CC(=O)Nc1ccnn1CC1=CCCN(Cc2ncccc2C)C1 the “% Inhibition” value was 9% and the Z score was -1.36.
C#CCN(CC(=O)N1CC(C)OC(C)C1)Cc1cccc(C)n1 (centres undefined) was tested, and the “% Inhibition” value was -4% and the Z score was 0.68.
In the case of Cc1nc([C@@H](C)Cn2cccn2)n(-c2cccc3cccnc23)n1, the “% Inhibition” value is reported as 11% and the Z score is reported as -1.39.
In the case of O=C(N[C@@H]1CN(C(=O)CC2CCCCC2)C[C@H]1CO)c1ccccc1, the “% Inhibition” value is reported as -14% and the Z score is reported as 2.44.
With CC1(C)[C@@H](N(O)C(=O)Nc2cccc(C(F)(F)F)c2)N(c2cccc(C(F)(F)F)c2)C(=O)N1Cc1ccc2c(c1)OCO2 the “% Inhibition” value was 4% and the Z score was -0.52.
In the case of O=C1N[C@@H](CC2CCCCC2)C(=O)N[C@@H](Cc2ccccc2)C(=O)NCc2cn(nn2)CCOc2ccc(Cl)cc21, the “% Inhibition” value is reported as 1% and the Z score is reported as -0.2.
In the case of O=C(CCc1ccncc1)N1CCCC[C@@H]1CCc1cccc(O)c1, the “% Inhibition” value is reported as -20% and the Z score is reported as 1.86.
CCc1nc(C2CCCN(C(=O)C3COc4ccccc4C3)C2)cc(=O)[nH]1 (centres undefined) was tested, and the “% Inhibition” value was -2% and the Z score was 0.21.
In the case of C[C@@H](CC(N)=O)N(C)C(=O)Cc1ccc(CO)cc1, the “% Inhibition” value is reported as -8% and the Z score is reported as 1.38.
With COCCCNC(=O)[C@]1(C)Cn2nc(-c3ccccc3)cc2C(=O)N1Cc1cccc(C)c1 the “% Inhibition” value was 2% and the Z score was -0.34.
Cc1ccc(N2C[C@@H](c3noc(-c4cccc(N(C)C)c4)n3)CC2=O)cc1 was tested, and the “% Inhibition” value was 4% and the Z score was -0.36.
In the case of O=C(CN1C(=O)CCn2nc(-c3ccc(Cl)cc3)cc21)NCc1ccccc1, the “% Inhibition” value is reported as -9% and the Z score is reported as 0.94.
COc1ccc(CN(C)S(C)(=O)=O)cc1F was tested, and the “% Inhibition” value was 22% and the Z score was -2.6.
COc1cccc(-c2ccc(N3CCN(C(=O)CN(Cc4ccccc4)C(=O)CC(C)C)CC3)nn2)c1 was tested, and the “% Inhibition” value was -19% and the Z score was 1.84.
For COc1ccc(NC(=O)CN2C(=O)[C@H]3CCCC3=Nc3ccccc32)cc1, the “% Inhibition” value was 1% and the Z score was -0.17.
CO[C@H]1C[C@H](C(=O)Nc2cc(Cl)ccc2OC(C)C)N(S(C)(=O)=O)C1 was tested, and the “% Inhibition” value was 9% and the Z score was -1.5.
With O=C(NCCc1ccc(=O)[nH]c1)C1CCC1c1ccc(F)cc1 (centres undefined) the “% Inhibition” value was 1% and the Z score was -0.1.
In the case of CN1CCN(C(=O)c2cc(Br)c3c(c2)OCCO3)CC1, the “% Inhibition” value is reported as -5% and the Z score is reported as 0.83.
In the case of CN1C(=O)C[C@H](NS(=O)(=O)CC2CCCC2)C1=O, the “% Inhibition” value is reported as -17% and the Z score is reported as 3.13.
With Cc1ccccc1-c1nnn(CC(=O)N(C2CCCCC2)C2CCCCC2)n1 the “% Inhibition” value was -9% and the Z score was 1.28.
For Cc1c(C(=O)NCCC(C)C)c(C(F)(F)F)nn1C1CCN(C(C)C)CC1, the “% Inhibition” value was 12% and the Z score was -1.38.
